Results on 56 molecules are retold here after article PMC4336329 (PLoS ONE, 2015).

The campaign covered roughly 310,000 compounds. About 2,200 (0.71%) showed an effect of 50% or more. Effects have a minus sign here. Some of the results follow.

Chain of human ether-à-go-go-related gene (hERG) potassium channel (Q12809 whole entry, looked up): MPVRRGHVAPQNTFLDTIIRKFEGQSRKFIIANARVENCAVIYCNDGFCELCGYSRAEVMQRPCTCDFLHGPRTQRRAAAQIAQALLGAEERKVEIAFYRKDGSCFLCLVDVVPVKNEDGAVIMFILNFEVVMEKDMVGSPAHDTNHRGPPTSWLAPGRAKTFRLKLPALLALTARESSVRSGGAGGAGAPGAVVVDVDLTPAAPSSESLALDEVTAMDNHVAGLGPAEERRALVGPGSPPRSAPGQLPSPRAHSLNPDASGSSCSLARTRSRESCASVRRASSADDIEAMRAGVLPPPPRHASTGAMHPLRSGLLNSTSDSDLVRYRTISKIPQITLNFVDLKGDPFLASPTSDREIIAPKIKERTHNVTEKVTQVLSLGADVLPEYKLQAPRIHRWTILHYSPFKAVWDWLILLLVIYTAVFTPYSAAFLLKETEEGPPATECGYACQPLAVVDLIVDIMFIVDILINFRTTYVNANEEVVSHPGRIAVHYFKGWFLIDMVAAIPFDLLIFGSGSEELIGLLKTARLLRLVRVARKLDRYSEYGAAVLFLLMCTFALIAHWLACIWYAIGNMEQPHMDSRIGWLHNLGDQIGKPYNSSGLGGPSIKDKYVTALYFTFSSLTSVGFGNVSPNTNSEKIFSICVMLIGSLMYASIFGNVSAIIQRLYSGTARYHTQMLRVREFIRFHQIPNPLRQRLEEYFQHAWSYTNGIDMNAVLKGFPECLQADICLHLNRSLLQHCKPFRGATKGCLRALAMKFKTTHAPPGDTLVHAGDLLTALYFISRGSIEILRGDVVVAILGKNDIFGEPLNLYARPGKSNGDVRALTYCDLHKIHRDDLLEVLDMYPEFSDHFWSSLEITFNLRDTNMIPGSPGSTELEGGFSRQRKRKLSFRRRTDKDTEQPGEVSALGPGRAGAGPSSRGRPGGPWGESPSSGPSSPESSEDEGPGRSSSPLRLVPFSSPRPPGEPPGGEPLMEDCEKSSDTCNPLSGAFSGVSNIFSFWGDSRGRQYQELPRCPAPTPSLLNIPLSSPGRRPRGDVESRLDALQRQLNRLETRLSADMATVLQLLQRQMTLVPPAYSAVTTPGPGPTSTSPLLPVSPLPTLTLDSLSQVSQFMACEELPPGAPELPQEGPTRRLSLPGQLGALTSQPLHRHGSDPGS

This experiment addresses human ether-à-go-go-related gene (hERG) potassium channel (human, UniProt Q12809). Kind of experiment: primary screen, population patch clamp on CHO cells stably expressing hERG.
For `Cc1ccc(C(=O)Nc2ccccc2N2CCCC2)cc1S(=O)(=O)N1CCOCC1`, the “hERG current change (%, negative = inhibition) at 1uM” value worked out at 3.22%. Take `CCOc1cc(OCC)c(C(C)=O)cc1OCC`: the “hERG current change (%, negative = inhibition) at 1uM” value is 10.8%. The figure for `CCC(c1nnnn1Cc1ccccc1)N1CCN(C(=O)c2ccco2)CC1` (centres unmarked) is -2.48%; for `O=C(Nc1ccccc1)c1c(O)c2c(n(Cc3ccco3)c1=O)CCCC2` it is 13.1%. Under `COC(=O)c1ccc(COC(=O)c2cccn2C)o1` stands 8.18%; under `Cc1ccc(C(C(=O)NC(C)(C)C)N(CC2CCCO2)C(=O)Cn2nnc(-c3ccc(C)o3)n2)cc1` (centres unmarked), 6.88%; under `COc1ccc(C(=O)N(CC(=O)NC(C)(C)C)c2ccc3c(c2)OCCO3)cc1OC`, -1.9%. Consider `O=C(c1ccc(F)cc1)C1CCN(C(=O)c2ccncc2)CC1`, for which the “hERG current change (%, negative = inhibition) at 1uM” value stood at 2.11%. Under `CN(C)C(=O)COC(=O)c1cc(Cl)cc(Cl)c1N` stands 5.1%; under `CCCCOc1cccc(C(=O)Nc2ccc(N3CCN(CC)CC3)cc2)c1`, 7.22%. For the molecule `CCC(C)(C)NC(=O)c1ccc2c(c1)N(CC(=O)NC1CCCC1)C(=O)C(C)(C)O2`, the “hERG current change (%, negative = inhibition) at 1uM” value is given as 17.3%.

`COC(=O)c1cc(S(=O)(=O)N2CCOCC2)c(Cl)cc1N1CCOCC1`: the “hERG current change (%, negative = inhibition) at 1uM” value was -5.16%.

For `COc1ccc(NC(=O)CCC(=O)OCc2ccc(Br)cc2)cc1`, the “hERG current change (%, negative = inhibition) at 1uM” value was 4.54%. Under `COCCCN1C2=C(C(=O)CC(C)(C)C2)C(c2ccc(O)c(OC)c2)C2=C1CC(C)(C)CC2=O` stands 22.5%; under `Cc1cc(C)cc(-n2c(C)cc(C=C(C#N)C#N)c2C)c1`, 7.76%; under `COc1ccc(S(=O)(=O)Nc2nc3ccccc3nc2NCc2ccc3c(c2)OCO3)cc1`, 21.7%. The figure for `CCC(=O)n1nc(-c2ccccc2)nc1N` is 15.3%; for `CCOc1ccc(NC(=O)CN(C)C(=O)CCCOc2ccc(Br)cc2)cc1OCC` it is 8.21%; for `CC1CCC(NC(=O)CN2C(=O)NC(C)(C)C2=O)CC1` (centres unmarked) it is 11.9%. Under `O=C1C2C3C=CC(C3=C(c3ccccc3)c3ccccc3)C2C(=O)N1Cc1ccccc1` (centres unmarked) stands 17.2%. With `Cc1cc(NS(=O)(=O)c2ccc(Br)s2)no1`, the “hERG current change (%, negative = inhibition) at 1uM” value came out at 18.9%. In the case of `COc1ccc(CCN2C(=O)CC(N3CCN(c4ccccn4)CC3)C2=O)cc1OC` (centres unmarked), the “hERG current change (%, negative = inhibition) at 1uM” value was determined as 14.1%. As to `COc1ccc(OC)c(S(=O)(=O)Nc2ccccc2SC)c1`, the “hERG current change (%, negative = inhibition) at 1uM” value stood at 0.168%. Under `CS/C(=N\S(=O)(=O)c1ccc(Cl)cc1)c1ccccc1` stands 9.93%. Under `O=C(NCCN1CCN(C(=O)c2ccc([N+](=O)[O-])cc2)CC1)C(=O)Nc1ccc(F)cc1` stands -84.3%. As for `O=C(c1ccco1)N1CCN(S(=O)(=O)c2ccc(Cl)s2)CC1`, the “hERG current change (%, negative = inhibition) at 1uM” value is given as 2.83%. Under `Cc1cc(-c2nnc(SCC(=O)Nc3nc(-c4ccccc4)cs3)o2)no1` stands -3.9%; under `CCOc1ccc(OCCCC(=O)ON=C(N)c2ccccc2C)cc1`, 2.24%; under `CCOC(=O)CSc1nnc(-c2cccnc2)o1`, 9.45%. The figure for `CC(NC(=O)CC1CCCCC1)c1ccccc1` (centres unmarked) is 15.7%; for `COc1ccc(C)cc1NC(=O)CN1CCN(S(=O)(=O)c2ccc(F)cc2)CC1` it is 6.68%; for `CC[n+]1c(/C=C/c2cc([N+](=O)[O-])ccc2O)ccc2ccccc21.[I-]` it is 6.39%. Under `CCOc1ccc(NC(=O)CSc2nc3ccccc3c(=O)n2CCNC(C)=O)cc1` stands -8.82%. For the molecule `O=C(COC(=O)Cc1ccc(F)cc1)NC(=O)NC1CCCC1`, the “hERG current change (%, negative = inhibition) at 1uM” value is reported as 11.7%. The figure for `COC(=O)C1=C(CS(=O)(=O)c2ccc(Cl)cc2)NC(=O)NC1c1ccc(O)cc1` (centres unmarked) is 17%; for `Cc1ccc(C2=NO[C@@](CC(=O)O)(C(=O)Nc3ccc4c(c3)OCCO4)C2)cc1` it is 11%. Take `CCC(C)NC(=O)[C@H]1N2C(=O)c3c(ccc(OC)c3OC)C2SC1(C)C` (some centres unmarked): the “hERG current change (%, negative = inhibition) at 1uM” value is 12.2%. On to `CCOC(=O)c1nnc(-c2ccccc2)nc1Oc1ccccc1Cl`, for which the “hERG current change (%, negative = inhibition) at 1uM” value was 12.9%. The figure for `CC(C)COc1nc2ccccc2c(=O)n1OCC(=O)O` is 16%; for `Cc1cc(C(C)(C)C)nc2[nH]n(-c3ccccc3)c(=O)c12` it is 7.76%; for `Cc1cccc(Cl)c1OCCCN1CCOCC1.O=C(O)C(=O)O` it is 11.9%. With `O=C(c1ccccc1-c1nc(-c2ccccc2)no1)N1CCOCC1`, the “hERG current change (%, negative = inhibition) at 1uM” value is on record as 16%. Turning to `Cc1ccccc1NC(=O)OCc1cccnc1Sc1ccc(Cl)cc1`, the “hERG current change (%, negative = inhibition) at 1uM” value is recorded as 9.66%. Under `CC1CCCCC1NC(=O)CN1C(=O)NC(C)(c2cc(F)ccc2F)C1=O` (centres unmarked) stands 15.6%; under `Nn1c(SCC(=O)N2CCCC2=O)nnc1-c1cccs1`, -2.11%. The figure for `CS(=O)(=O)c1ccccc1C(=O)Nc1ccc(-c2nc3ccccc3[nH]2)cc1` is 7.54%. Under `CC(=O)NCCC(=O)N(C)CC1CCN(CCc2cccc(C(F)(F)F)c2)CC1` stands 12.5%; under `CCN(CC)C(=O)C1CCCN(C/C=C/c2ccccc2[N+](=O)[O-])C1` (centres unmarked), -6.08%; under `CCOC(=O)CNC(=O)CSc1nc(Cc2cccs2)nc2ccccc12`, -1.36%. As for `Cc1ccc(-n2c(SCC(=O)N3Cc4ccccc4CC3C(=O)O)nnc2-c2cccnc2)c(C)c1` (centres unmarked), the “hERG current change (%, negative = inhibition) at 1uM” value is reported as -3.66%. `COc1ccc(CC(NC(C)=O)C(=O)NC2CCN(c3nc(C)cc(C)c3C#N)CC2)cc1` (centres unmarked): the “hERG current change (%, negative = inhibition) at 1uM” value was determined as 5.46%. Consider `O=C(Oc1cccc(OC(=O)N2CCCCC2)c1)N1CCCCC1`, for which the “hERG current change (%, negative = inhibition) at 1uM” value came out at 12.3%. The figure for `Cc1ccc(N(C(=O)c2ccncc2)C2C=CS(=O)(=O)C2)cc1` (centres unmarked) is 6.32%; for `O=C(CN(C(=O)Cn1nnc(-c2cccs2)n1)c1cnc2ccccc2c1)NCC1CCCO1` (centres unmarked) it is 5.92%. For `COc1ccc(-c2c(C#N)c(N)nc3sc(C(=O)c4ccc(C)cc4)c(N)c23)cc1`, the “hERG current change (%, negative = inhibition) at 1uM” value was 16%.

For `O=C1C(=O)N(CCN2CCOCC2)C(c2cccc(Cl)c2)/C1=C(\O)c1ccc2c(c1)OCCO2` (centres unmarked), the “hERG current change (%, negative = inhibition) at 1uM” value stood at 2.15%.
